Consider 27 compounds from PubChem BioAssay AID485344 (National Center for Advancing Translational Sciences (NCATS), 2010).

Among all 340,000 compounds or so, about 6,900 (2%) were called active. No stated cut-off is given here; in the data, active means inhibition above about 30%; inactive means below that, where a call was filed. Only a part is listed here, and it is no random draw. The source gives no active or inactive call for entries shown without one.

The test deals with D(2) dopamine receptor (Homo sapiens) (UniProt P14416). Briefly: HTS Assay for Allosteric Antagonists of the Human D2 Dopamine Receptor: Primary Screen for Antagonists. Further: 0% is about no effect. As to conditions: HEK293 TREx D2 cells, calcium flux, dopamine EC80; at 10 µM; stronger effect = higher value. The procedure, abridged: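 Cells plated overnight at 30 C with tetracycline; no-wash calcium dye, 30–90 min RT; 10 s baseline; compound pinned; 180 s read; EC80 dopamine added; another 180 s read.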
Sequence of UniProt P14416 (P14416 whole entry, looked up): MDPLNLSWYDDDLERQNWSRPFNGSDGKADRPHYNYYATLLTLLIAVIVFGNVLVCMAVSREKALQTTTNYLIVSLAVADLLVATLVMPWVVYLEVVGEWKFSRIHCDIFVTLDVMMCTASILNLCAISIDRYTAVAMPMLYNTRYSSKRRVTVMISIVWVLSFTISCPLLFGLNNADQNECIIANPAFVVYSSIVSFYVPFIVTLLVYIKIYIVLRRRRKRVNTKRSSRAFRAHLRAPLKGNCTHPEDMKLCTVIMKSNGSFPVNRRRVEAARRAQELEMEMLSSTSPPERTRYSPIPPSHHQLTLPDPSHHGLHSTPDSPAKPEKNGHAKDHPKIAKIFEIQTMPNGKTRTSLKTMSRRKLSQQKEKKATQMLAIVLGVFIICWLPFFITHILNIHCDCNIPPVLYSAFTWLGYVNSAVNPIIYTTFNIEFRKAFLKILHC
(A change in cytosolic calcium serves as a functional read-out for many receptors and channels.)
In the case of `COc1cccc(C(=O)Nc2nnc(S(=O)(=O)N3CCCC3)s2)c1`, the inhibition was -20%.
Under `CC(C)c1ccc(S(=O)(=O)c2cnc(SCC(=O)Nc3ccc4c(c3)OCCO4)[nH]c2=O)cc1` stands -16.2%.
Consider `CSc1ccc(-c2nc3cccc(C)n3c2Nc2ccc(Cl)cc2)cc1`, for which the inhibition is -1.89%.
With `COc1ccccc1N1C(=O)N(CC(=O)C(C)(C)C)c2ccccc2S1(=O)=O`, the inhibition is 0.186%.
Turning to `O=C1CN(C(=O)COc2ccc(Cl)cc2Cl)C(c2ccccc2)c2cc(F)ccc2N1` (configuration not stated), the inhibition is -10.2%.
With `CN(C)CCNC(=O)c1ccc(-c2nn(C)c(=O)c3ccccc23)cc1`, the inhibition is -11.1%.
Take `CCn1c(=O)cc(OCC(=O)N(C)c2cc(Cl)ccc2C)c2ccccc21`: the inhibition was determined as 10.6%.
Under `CC(C)(C)C1CCc2nc(NC(=O)Cc3ccccc3)sc2C1` (configuration not stated) stands -3.49%; under `COC(=O)c1ccccc1NC(=O)N1CCC(N2CCN(Cc3ccc(F)cc3)C(=O)C2=O)CC1`, 2.99%; under `COc1cc(Nc2nc3c(S(=O)(=O)c4ccc(C)c(C)c4)nnn3c3ccsc23)cc(OC)c1`, 0.0229%.
With `Cc1ccc(OCC(=O)Nc2nnc(S(=O)(=O)N3CCCCCC3)s2)cc1`, the inhibition was 22.4%.
Under `O=C(NCc1ccc(F)cc1)C1(c2cccs2)CCOCC1` stands -3.14%; under `CCOC(=O)c1c(NC(=O)C2c3ccccc3Oc3ccccc32)sc(C)c1CC`, -8.17%; under `Oc1ccc(NCc2ccccc2OCc2ccc(Cl)cc2)cc1`, -4.14%.
Under `CCOc1ccc(OCC)c(NS(=O)(=O)c2ccc3[nH]c(=O)ccc3c2)c1` stands -0.171%; under `CC(NC(=O)C1=Cc2ccccc2OC1)c1ccccc1` (configuration not stated), 14%; under `COc1cc2nc(SCC(=O)Nc3cccc(C)c3)n3nc(CCn4c(C)nc5ccccc54)nc3c2cc1OC`, -1.1%.
As to `CCc1ccccc1-n1c2c(cc(-c3nc(-c4ccc(Cl)cc4)cs3)c1=O)C(=O)CC(C)(C)C2`, the inhibition was determined as 5.22%.
Under `CCOCCCNC(=O)c1cc2c(=O)[nH]c3ccccc3c2s1` stands active: 58.4%; under `CC(=O)N1c2ccc(S(=O)(=O)NCC3CCC(C(=O)Nc4ccc(F)cc4)CC3)cc2CC1C` (configuration not stated), -0.88%.
Regarding `O=C(COc1ccc(F)cc1)NC1CC(=O)N(c2ccc3c(c2)OCCO3)C1` (configuration not stated), the inhibition stood at 27%.
The value for `COc1cccc(NC(=O)C2CCN(c3cc(C)nc4c(-c5ccc(Cl)cc5)c(C)nn34)CC2)c1` was 2.13%; that for `Cc1ccc(-c2nn3c(=O)cc(CN4CCN(S(=O)(=O)c5ccc(Cl)cc5)CC4)nc3s2)cc1` was 10.9%.
As for `COc1ccc(CNC(=O)c2ccc3c(c2)CCN3S(=O)(=O)c2ccc(Cl)cc2)cc1`, the inhibition is -13.9%.
Regarding `CCC(C)NCCOc1cc(C)cc(C)c1C` (configuration not stated), the inhibition was active: 50.9%.
`Cc1cc(C)cc(NC(=O)c2ncn(-c3ccccc3)n2)c1`: the inhibition was -9.22%.
With `O=C(NC1CCCC1)C(c1ccc(Cl)cc1)N1CCOCC1` (configuration not stated), the inhibition was active: 32%.

As usually defined, the inhibition is the drop in the measured response relative to a control, in per cent.
